# The list shows a part of the results.
# System: PF3D7_0420300 AP2 domain 1 (GST-tagged)
# Assay: gcPBM binding intensity (ln(normalized median fluorescence intensity)); higher = stronger DNA binding
# How it was run: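 Alexa488 anti-GST antibody, scanned at 488 nm, detected GST-tagged P. falciparum DNA-binding domains that had been expressed in E. coli and incubated for 1 h on an Agilent 4 × 180k array. The array carried primer-extended double-stranded 36-bp intergenic genomic probes and negative controls. Binding intensity is the highest Masliner-normalised natural-log median intensity across replicate spots of either orientation of each probe.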
row,Sequence,gcPBM binding intensity (ln)
1,TCCTTATAAAAATACACACAAACTTTAATTAAAACA [CACACA_site3730],9.48
2,TATTATATTTATTTATGTACACATATACTTAAATAA [XGTACX_site1355],9.07
3,TGTAATACAGAAAAAAGTACTAAAAAGAAAAGGATT [XGTACX_site3176],9.57
4,ACACCTATAAATTAAGTGCATTTTTTTTGATGTTAT,9.28
5,TTTTTTTTTTTAATATGTACGTAAAATAAGTTTAAA [XGTACX_site6495],8.87
6,ACATTCAATCTACTGTGTACATATTAAACTTTGAAA [XGTACX_site2913],9.31
7,AAAAAATATATATCACGTGGTAATATATATATATAT [XGTACX_negctrl_site252],9.22
8,TACATCTGTATATAAACACACAACAAAAATGCTTAC [CACACA_site3814],9.44
9,AATATATAAATAGATACACACATACATACATACATA [CACACA_site4301],9.78
10,AAATTAAATCCGCACGCACACACACCGATTAATAAA [CACACA_site9321],9.85
11,AATATTACGTCTGGACGTACAAATCTTTTTCGTGTC [XGTACX_site6644],9.05
12,AAATTATTGAAATACGCATGTGTTTTTTTTTTTTTT [TGCATGCA_site391],9.12
13,TTTTACTAGATATATACACACATTATACCTATAGAT [CACACA_site7530],9.52
14,ACATTTTTTTTTTTTTTTTTTTTCTTACATCATGCA [CACACA_negctrl_site1413],9.21
15,ATATAAAGGTTTATTAGTACACATTAGAATACTTTT [XGTACX_site4492],9.21
16,GAAATATTTTGTTGTGCATGCGACATTAAATAAAAA [TGCATGCA_site331],8.98
17,CATATTAGGACAAAGTGTACATATATATATATATAT [XGTACX_site1172],9.27
18,TTATGAAAAAAATACTGTACACAATATGACGAAAGT [XGTACX_site2283],9.66
19,TTTTAAATAAATCATGCATGCACATATAATTATATT [TGCATGCA_site151],9.12

row,Sequence,gcPBM binding intensity (ln)
1,TATCTCATTTGGAATTGTACTAACAGATACTTGTTT [XGTACX_site2672],9.12
2,ATTCAATAATTGTTTTTTTTCTTTTTGTTTTTGTTT [GTGCAC_negctrl_site563],9.61
3,TATACGCATATTTTTACACACATATTTTTTCATATA [CACACA_site2546],9.83
4,TATATATAATATATATGTACATATGTATAATATTTA [XGTACX_site4400],9.16
5,CATATTAAAAATACATGTACATATATATTTAATATA [XGTACX_site8580],9.08
6,GTTTGTAAATATTTTACACACATATTTATTTATATA [CACACA_site6632],9.5
7,TATAAATATGTGTTTACACACAATAATGAATTAAAA [CACACA_site6555],9.32
8,GTTAAAATAATATTATGTACATATATATAAAAATAT [XGTACX_site8512],9.25
9,AACCTCAAATACACAAGTACGTATAATAAGGAACAA [XGTACX_site4304],9.5
10,ATGGAAAAATGTATATATAAAATAAATATATTATAT [CACACA_negctrl_site1712],9.26
11,AATATACACATTGTGAAATAACAAAAAAGGCAAAAA [CACACA_negctrl_site1014],9.66
12,CCTATTTATATATACACACACATATATAAATAAATA [CACACA_site2991],9.61
13,ATATATATTCATAATACACACATTCTGTAGCATTAT [CACACA_site2067],9.51
14,ATAGTATCTGGTAGCTGTACGAATGGTAGAGAGTAG [XGTACX_site2548],9.51
15,TATATATATGTATGATGTACATATATGCATATATAT [XGTACX_site3399],9.05
16,TTAATTAAATATTATACACACAAAAAAATAATTTTA [CACACA_site96],9.27
17,AATAAAAAGATATTCTCCTTGTTCCTTTTTTTTAAA [CACACA_negctrl_site1147],9.17
18,ATTTTAACCAATTATTGTACTTGGTTATTCTTTTTT [XGTACX_site7453],9.51
19,AATCTATATTGACACACACACAAAAAAAAAAAAAAA [CACACA_site6739],9.54

row,Sequence,gcPBM binding intensity (ln)
1,ATATATATATTAAAGGTGCACAAATAAATATATACA [GTGCAC_site9532],9.51
2,ATATTTTTTTTCTTCACACACATGAATTATATATAA [CACACA_site3216],9.67
3,TTAATAACAAAATAAACACACATATATAAATACACA [CACACA_site6849],9.86
4,TTATATTTTTTTTGTAGTACATTATAGAATACACAC [XGTACX_site969],9.24
5,AAATGTTGAAATGATACACACATATATATATATATA [CACACA_site2517],9.33
6,TAAATTCTGTTTAAAAGTACAAATAATATTGTGCCT [XGTACX_site7805],8.94
7,TTTATTAAAACAAAATGTACACACATATAATTTAAT [XGTACX_site1637],9.41
8,TTAATCTTCATAAAATGTACAGAAGATTGAATATTC [XGTACX_site6213],8.93
9,TGAAAGTGTATTAAAGTGCATATTATTTTATCTACC [GTGCAC_site9969],9.2
10,TACAGAAATTTATATATATATATATATATATATATA [XGTACX_negctrl_site209],8.92
11,AAATCAAAAACGTTTACACACATTCTTATTTAAATA [CACACA_site790],9.41
12,TGAGACATGAATGCAAGTACAAAAAGGAGAACAAAA [XGTACX_site6183],9.41
13,TACATATATTTTTTATGTACTTACTTGTGTGTTTAT [XGTACX_site5126],9.5
14,TTTTATAATTTCAAAGGATTCTTTAATATTATAAAT [CACACA_negctrl_site1812],8.75
15,AAAAAAAAAAAAAAAAGTACACACTTTTGCCTACAT [XGTACX_site6583],9.34
16,AAATTATATATAATAAATAATTTCTTTTTCTAAAAG [CACACA_negctrl_site8],8.77
17,AATAATTGCTAAAGGTGTACAATACGTATATAAGAA [XGTACX_site4910],9.53
18,ATTATTCGTTTTAAATGTACTCATATAAACGATAAA [XGTACX_site7866],8.84

# Source: the supplement of paper PMC11417369
